Experimental data taken from the supplement of paper PMC11417369.
± gives the standard deviation of the averaged measurements. The list shows a part of the results.

System: PfAP2-EXP AP2 domain (GST-tagged)
Experiment: gcPBM binding intensity (ln(normalized median fluorescence intensity)); higher = stronger DNA binding
Summary of the method: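 The highest Masliner-normalised natural-log median intensity across replicate spots of either probe orientation is reported as binding intensity. GST-tagged P. falciparum DNA-binding domains expressed in E. coli were applied for 1 h to an Agilent 4 × 180k array of primer-extended double-stranded 36-bp intergenic genomic probes plus negative controls, and bound protein was detected with Alexa488 anti-GST antibody and scanned at 488 nm.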

Sequence | gcPBM binding intensity (ln)
TGGTATATATTTCCTTGTACATATAATATATATTGT [XGTACX_site3961] | 8.49 ± 0.57
TAATATAGTATAGTATGTACATATAATTAGAATATT [XGTACX_site4053] | 8.76 ± 0.25
TATTAAAGGGGTTTCACACACATGTATAATTAATTT [CACACA_site200] | 8.52 ± 0.49
AACCATATTTAGATTACACACAGTTTAAATATTTTA [CACACA_site6712] | 8.31 ± 0.42
AATATGAACAGACACACACACACAAAAAAAAAAAAA [CACACA_site2012] | 8.47 ± 0.53
AATTTGTTATGTATATGTACATAAATAGATATATGA [XGTACX_site3930] | 8.62 ± 0.29
TCTTGACGAAGTAGAAGGATATATATATAAAAAAAA [CACACA_negctrl_site641] | 8.63 ± 0.49
AGGAGGTCAGTTCACAGTACCCAGAAAACTCTACGA [XGTACX_site1992] | 8.46 ± 0.56
TCCAGGTATTTATTCTGTACACATAAAACATTTTAT [XGTACX_site8472] | 8.65 ± 0.33
TCGTCTCTTCTTGTTCTGTTTTAGAAGGCTATATAT [CACACA_negctrl_site180] | 8.9 ± 0.46
TTCTTATCAAGAGAAAGTACATAAAAAATTAATAAG [XGTACX_site1821] | 8.71 ± 0.46
CAAAACCTACATAACATACACACGCATATATAGAAT [CACACA_site2846] | 8.67 ± 0.65
CATGCAATATTAAACACACACTCATATAGCACAATA [CACACA_site6182] | 8.79 ± 0.092
CCAACAAAAATAAGCACACACAAATATACATACATA [CACACA_site3606] | 8.84 ± 0.54
ACAGTATCTGGTAGCTGTACGGATTGTAGAGAGTAG [XGTACX_site4872] | 9.07 ± 0.49
AGAATAATAAAATGGGTGCAATAGTTTTTTTTTTTT [GTGCAC_site9823] | 8.59 ± 0.13
TTGGATTTTCCATAATGTACACATAAAAGTGTTACA [XGTACX_site4544] | 8.185 ± 0.078
TTTTAAAAAATATAATATAATATAATATAAAATAAA [CACACA_negctrl_site154] | 8.12 ± 0.32
TAAGTATAAATATTTACACACATTTGTTTTTTTTTA [CACACA_site7731] | 8.35 ± 0.54
ATGTAAAACATAAAATGTACATATTATACAAACTAT [XGTACX_site5797] | 8.86 ± 0.42
AATAAAATAATAAAAGCACACAAGAATACAGACAAA [CACACA_site112] | 9.16 ± 0.37
GGATAATATATTAGAACACACATATATCTGTAAAAA [CACACA_site4266] | 8.54 ± 0.59
TAATATAATATATGCACACAAATATGTATATATGTG [CACACA_site2134] | 8.23 ± 0.2

Sequence | gcPBM binding intensity (ln)
CACAAAATAAATTAAACACACAACATCAGATATGTA [CACACA_site6529] | 8.39 ± 0.47
TAATATACATAATAATGTACATATTTTCATATATAC [XGTACX_site6913] | 8.23 ± 0.38
AACTATTTTATTATATGTACTTACGAATTTATAAAA [XGTACX_site5262] | 8.44 ± 0.4
AATGTAGGTTTATTTACACACAAATATAAATATATA [CACACA_site1523] | 8.25 ± 0.33
TGTGTTGTAACAAAATGTACGAGCTTGATGTAGAAT [XGTACX_site2293] | 9.05 ± 0.61
ATAAACTGATGTGTATGTACACATGTAATAATAAAT [XGTACX_site7649] | 8.68 ± 0.39
TATTTTTCTTTATTGGTACACACGAAAAAAAAATTG [CACACA_site3054] | 8.47 ± 0.28
AAAATCCAGTTTTCAAAATTGAACAAAAAAAAAATA [GTGCAC_negctrl_site542] | 8.39 ± 0.55
TCTAAGTATAAAGACACACAGAATAAAAAAAAATAT [CACACA_site2367] | 8.7 ± 0.52
AAAAAAAAATTTAAGTGTACATTCCATTTTAGTTTA [XGTACX_site5286] | 8.16 ± 0.38
AAAATATATATGTATGTTTATATGTTTATATATATT [XGTACX_negctrl_site337] | 8.18 ± 0.49
AAGAAGCATAAATGTACACACATATTTATATATCAA [CACACA_site6743] | 8.37 ± 0.38
TATTTAATATATTTATGTACATATTTATTTATTATT [XGTACX_site524] | 8.56 ± 0.31
CAACACTTATTGAAACGTACGCATATAGTTTCTTTT [XGTACX_site8960] | 8.59 ± 0.31
AAAGGATATGGACACACACACACATATATATATATA [CACACA_site8686] | 10 ± 0.42
TTTATTTATATTTATACACACAAACATAATACTACT [CACACA_site7039] | 8.51 ± 0.4
ATATATTTTTTAAACACACACATAAATATTTGTGTA [CACACA_site2879] | 8.47 ± 0.35
ATATACTTACATATTACACACAATATTTTTAAATGT [CACACA_site3627] | 8.55 ± 0.32
AAGGGAATATACCTTACACACAAAAATGCAGATATA [CACACA_site1451] | 8.58 ± 0.45
TTTTTTTTGGTTTTCATGCACACAATTTATAAATCT [CACACA_site3107] | 8.94 ± 0.36
AAAGTAAAAAAAAAAACATGCACATATTTACTTTAT [TGCATGCA_site849] | 9.07 ± 0.4
CTAATCAAAATAAATTAACACACAATTTTAATATTG [CACACA_site7887] | 8.05 ± 0.48
